Assay results reported in PubChem BioAssay AID504333 (National Center for Advancing Translational Sciences (NCATS), 2011).
Hit rate of the full screen: of about 360,000 compounds, about 16,000 (4.4%) were called active. This list was built around the results that the source calls inconclusive (neither active nor inactive); the mix of calls is not that of the screen. Calls come from the whole dose curve; as a rule, active = well fitted inhibition curve with a large enough effect; inconclusive = small, poorly fitted or top-dose-only effect; inactive = no such curve, though single readings can be large or run the other way. Potencies beside an inconclusive call are fits to weak or partial responses and may not hold up.

Molecular target: Bromodomain adjacent to zinc finger domain protein 2B (Homo sapiens) (UniProt Q9UIF8)
Assay: qHTS Assay for Inhibitors of BAZ2B; note: nearly all actives have a fitted effect of over 60% in size
Conditions: AlphaScreen BAZ2B-H3K14Ac peptide displacement; activity change, negative = inhibition: at 114 µM (top of the series) unless noted
Method in brief: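 BAZ2B (50 nM) with biotin-H3(5-23)K14Ac peptide (50 nM) in PBS pH 7.4, 0.01% Tween-20, preformed 30 min, then compound 30 min at room temperature; top concentration 110uM. AlphaScreen streptavidin donor/nickel chelate acceptor beads (10 ug/mL final), 20 min dark, signal read.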
% is set by controls: 0 for no effect and ±100 for the full control effect; potency is the fitted concentration of half-maximal effect; tags give direction and shape of the fitted curve.

UniProt Q9UIF8, sequence (Q9UIF8 whole entry, looked up, the tested form may be a part): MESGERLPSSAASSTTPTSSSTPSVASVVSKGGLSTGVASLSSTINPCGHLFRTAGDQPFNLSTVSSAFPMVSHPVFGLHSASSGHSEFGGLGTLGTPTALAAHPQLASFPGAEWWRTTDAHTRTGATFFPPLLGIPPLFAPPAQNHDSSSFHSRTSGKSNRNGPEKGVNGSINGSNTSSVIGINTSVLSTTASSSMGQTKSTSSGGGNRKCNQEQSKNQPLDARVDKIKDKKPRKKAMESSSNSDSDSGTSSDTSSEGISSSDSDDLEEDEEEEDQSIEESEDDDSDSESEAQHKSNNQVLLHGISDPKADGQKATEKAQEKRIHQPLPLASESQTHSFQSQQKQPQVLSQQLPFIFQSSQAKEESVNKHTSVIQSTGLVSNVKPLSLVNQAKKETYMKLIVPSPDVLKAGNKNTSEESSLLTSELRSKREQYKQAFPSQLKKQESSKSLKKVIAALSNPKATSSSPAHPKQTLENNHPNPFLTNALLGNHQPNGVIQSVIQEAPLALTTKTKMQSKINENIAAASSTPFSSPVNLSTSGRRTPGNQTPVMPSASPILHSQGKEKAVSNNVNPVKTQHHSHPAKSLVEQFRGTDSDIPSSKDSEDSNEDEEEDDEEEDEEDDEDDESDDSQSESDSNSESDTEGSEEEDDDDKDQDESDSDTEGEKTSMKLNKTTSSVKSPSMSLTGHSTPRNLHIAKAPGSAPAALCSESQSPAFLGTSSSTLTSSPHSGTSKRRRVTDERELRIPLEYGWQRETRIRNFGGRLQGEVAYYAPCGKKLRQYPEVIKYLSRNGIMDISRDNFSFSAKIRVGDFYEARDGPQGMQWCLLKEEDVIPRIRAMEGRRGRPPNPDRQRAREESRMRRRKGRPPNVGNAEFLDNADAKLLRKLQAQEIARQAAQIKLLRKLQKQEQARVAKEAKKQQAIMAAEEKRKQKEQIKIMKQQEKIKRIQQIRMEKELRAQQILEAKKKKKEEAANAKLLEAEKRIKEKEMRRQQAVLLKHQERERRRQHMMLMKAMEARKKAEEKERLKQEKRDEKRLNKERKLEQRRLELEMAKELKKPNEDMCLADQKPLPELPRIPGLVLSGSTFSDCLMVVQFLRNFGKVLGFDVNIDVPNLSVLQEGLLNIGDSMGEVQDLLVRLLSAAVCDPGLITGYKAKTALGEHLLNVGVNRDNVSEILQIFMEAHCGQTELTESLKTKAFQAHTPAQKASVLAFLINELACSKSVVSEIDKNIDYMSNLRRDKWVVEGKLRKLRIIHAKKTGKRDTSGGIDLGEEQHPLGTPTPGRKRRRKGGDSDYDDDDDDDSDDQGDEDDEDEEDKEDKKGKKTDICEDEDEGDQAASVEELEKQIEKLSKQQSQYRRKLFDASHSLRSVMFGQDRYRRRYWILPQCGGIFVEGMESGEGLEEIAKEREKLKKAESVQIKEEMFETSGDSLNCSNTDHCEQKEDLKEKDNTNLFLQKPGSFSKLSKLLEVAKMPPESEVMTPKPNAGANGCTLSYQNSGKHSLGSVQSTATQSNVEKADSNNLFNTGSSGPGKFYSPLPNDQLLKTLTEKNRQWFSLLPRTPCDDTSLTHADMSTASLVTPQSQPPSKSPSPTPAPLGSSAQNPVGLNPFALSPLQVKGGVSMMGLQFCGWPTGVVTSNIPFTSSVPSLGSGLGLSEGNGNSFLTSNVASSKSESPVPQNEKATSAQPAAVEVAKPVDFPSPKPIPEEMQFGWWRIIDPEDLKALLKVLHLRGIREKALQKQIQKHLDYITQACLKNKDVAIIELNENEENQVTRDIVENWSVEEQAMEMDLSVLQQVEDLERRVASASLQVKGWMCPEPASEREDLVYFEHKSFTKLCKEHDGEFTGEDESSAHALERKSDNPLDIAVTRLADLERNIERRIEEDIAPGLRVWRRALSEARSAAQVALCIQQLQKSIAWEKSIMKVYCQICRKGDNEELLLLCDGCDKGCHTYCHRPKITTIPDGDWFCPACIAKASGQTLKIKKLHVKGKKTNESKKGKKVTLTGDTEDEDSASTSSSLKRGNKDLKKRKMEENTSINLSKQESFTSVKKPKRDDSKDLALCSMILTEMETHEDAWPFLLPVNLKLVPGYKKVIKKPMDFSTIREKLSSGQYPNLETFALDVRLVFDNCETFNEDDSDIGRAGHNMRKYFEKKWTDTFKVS

SMILES | Potency | activity change, negative = inhibition
COc1ccc2c(c1)C(=NNC(=O)c1ccccn1)c1cc(OC)ccc1-2 | inconclusive: 4.47 µM [inhibitor, full curve, poor fit] | 
O=[N+]([O-])c1cccc(-c2nnc3ccc4ccccc4n23)c1 | inconclusive: 89.1 µM [inhibitor, single point] | 
COc1cc(/C=C2/SC(=S)N(CC(=O)NC(C)(C)C)C2=O)cc(OC)c1OC | inconclusive: 56.2 µM [inhibitor, single point] | 
C[C@@H](C(=O)NCc1c(F)cccc1Cl)N1C(=O)N2CCc3c([nH]c4ccccc34)[C@@]2(C)C1=O | inconclusive: 35.5 µM [inhibitor, partial curve] | 
C/C(=N\Nc1ccc(F)cc1F)c1ccccc1O |  | inactive: -6.63%
CN(C)c1cccc(NC(=O)CCc2ccccc2)c1 | inconclusive: 44.7 µM [inhibitor, partial curve] | 
Cc1ccc(NC(=O)c2ccc(=O)n(Cc3ccccc3C)c2)c(C)c1 |  | inactive: 3.88%
Cc1cc(/C=C(/C#N)C(=O)O)c(C)n1-c1cccc2ccccc12 | inconclusive: 50.1 µM [inhibitor, partial curve] | 
COc1ccc(C(=O)N=C2SC3CS(=O)(=O)CC3N2c2ccc(C(C)=O)cc2)cc1 (configuration not stated) | inconclusive: 79.4 µM [inhibitor, single point] | 
CCS(=O)(=O)C1=NSC2=NC(=O)/C(=C\c3cc(C)n(-c4cccc(OC)c4)c3C)C(=N)N21 | inconclusive: 89.1 µM [inhibitor, single point] | 
CC1CCN(C(=O)C2COc3ccccc3C2)CC1 (configuration not stated) |  | inactive: 2.08%
CC(=O)c1ccc(N2CCN(C(=O)c3cc4c(C)nc5ccccc5c4o3)CC2)cc1 | inconclusive: 89.1 µM [inhibitor, single point] | 
CC(C(=O)C12CC3CC(CC(C3)C1)C2)N1CCOCC1 (configuration not stated) |  | inactive: 8%
Cc1ccc(S(=O)(=O)N2CCCC(C(=O)NCc3ccc4c(c3)OCO4)C2)cc1 (configuration not stated) |  | inactive: -3.52%
Cn1c(=O)c2cc(S(=O)(=O)NC(C(=O)NCc3cccnc3)c3ccccc3)ccc2n(C)c1=O (configuration not stated) | inconclusive: 89.1 µM [inhibitor, single point] | 
O=C(CCCN1C(=O)/C(=C/c2ccccc2)SC1=S)N1CCOCC1 | active: 39.8 µM | 
COc1ccc2cc(C3CC(c4ccco4)=NN3S(=O)(=O)c3ccccc3)c(Cl)nc2c1 (configuration not stated) |  | inactive: -35.2%
COC(=O)c1[nH]c2ccccc2c1NC(=O)CN1CCN(c2cccc(OC)c2)C(C)C1 (configuration not stated) | inconclusive: 79.4 µM [inhibitor, single point] | 
COc1ccc(C2/C(=C(/O)c3ccccc3)C(=O)C(=O)N2CCCN2CCOCC2)cc1 (configuration not stated) | inconclusive: 89.1 µM [inhibitor, single point] | 
O=C(Cn1nc2ccccc2n1)N/N=C/c1cc([N+](=O)[O-])ccc1O | active: 11.2 µM | 
O=C(O)CCN(CCC(=O)O)c1nnc(SCc2ccccc2)s1 | inconclusive: 89.1 µM [inhibitor, single point] | 
NC(=O)c1ccsc1NC(=O)CSc1nnc(Nc2ccccc2)s1 | inconclusive: 70.8 µM [inhibitor, single point] | 
Cc1ccc(S(=O)(=O)N(CCc2ccccc2)CC(=O)Nc2ccc(Br)cc2)cc1 |  | inactive: 7.05%

SMILES | Potency | activity change, negative = inhibition
O=C1Nc2ccccc2N=C(c2ccccc2)c2ccccc21 | inconclusive: 70.8 µM [inhibitor, partial curve] | 
O=C(COC(=O)c1ccccc1SCC(=O)NC1CCS(=O)(=O)C1)NC1CCS(=O)(=O)C1 (configuration not stated) |  | inactive: -15.3%
CN(Cc1ccccc1)c1oc(COc2ccccc2F)nc1C#N | active: 28.2 µM | 
O=[N+]([O-])c1nn(-c2cccc(Cl)c2)n(O)c1=NCc1cccnc1 | inconclusive: 56.2 µM [inhibitor, partial curve] | 
NC(Cc1ccc2nonc2c1)C(=O)O (configuration not stated) | active: 79.4 µM | 
O=C(CCN1C(=O)/C(=C/c2ccc3c(c2)OCO3)SC1=S)NNC(=O)c1cccnc1 | inconclusive: 39.8 µM [inhibitor, partial curve] | 
CCN(CC)CCOC(=O)c1ccc(NC(=O)CCCN2C(=O)/C(=C\c3cccs3)SC2=S)cc1 | active: 20 µM | 
COc1ccc(S(=O)(=O)NCc2nc3nc(C)cc(C)n3n2)cc1OC | inactive | 
C[C@@H](NC(=O)[C@@H]1Cc2ccccc2CN1)C(=O)NCc1ccco1 | inconclusive: 39.8 µM [inhibitor, partial curve] | 
CN(Cc1ccccc1)c1ccc(C(CC(N)=O)NC(=O)Cc2cccc3ccccc23)cc1[N+](=O)[O-] (configuration not stated) | inconclusive: 79.4 µM [inhibitor, single point] | 
CC(NS(=O)(=O)c1ccc(Cl)cc1)C(=O)N1CCOCC1 (configuration not stated) |  | inactive: 2.56%
COc1cc(CNCCSc2nnnn2C)ccc1OCc1ccc(Cl)cc1Cl | inconclusive: 89.1 µM [inhibitor, single point] | 
COc1cc(OC)c(NC(=O)Nc2ccc(OC)c(OC)c2)cc1Cl | inconclusive: 50.1 µM [inhibitor, partial curve] | 
O=C(CCc1ccccc1)NNC(=O)c1ccc(NC(=O)c2ccccc2)cc1 | inconclusive: 100 µM [inhibitor, single point] | 
COc1ccc(Cl)cc1NC(=O)Cn1c(=O)c2ccccc2n2nncc12 |  | inactive: -22.9%
Cc1ccc(/C([O-])=C(/C(=S)NCc2ccccc2)[n+]2cccc(CO)c2)cc1[N+](=O)[O-] | inconclusive: 44.7 µM [inhibitor, partial curve] | 
Cc1nc(-n2nc(C)c(CCC(C)C)c2C)sc1C(=O)Nc1cccc(Cl)c1 | inconclusive: 89.1 µM [inhibitor, single point] | 
COc1ccccc1CNc1nc(S(=O)(=O)c2ccccc2)c(Cl)s1 | inconclusive: 79.4 µM [inhibitor, single point] | 
Cc1ccc2cc(CN(C(=O)c3ccco3)c3ccccc3C)c(=O)[nH]c2c1 |  | inactive: 13.2%
O=C(CCN1CCC(c2ccccc2)C1)c1ccccc1 (configuration not stated) | inconclusive: 100 µM [inhibitor, single point] | 
CCCN1C(=O)/C(=C\c2nc3ccccc3c(=O)[nH]2)c2ccccc21 | inconclusive: 11.2 µM [inhibitor, full curve] | 
CCOc1cc(/C=N/Nc2cccc(C(=O)O)c2)ccc1OCC(=O)N1CCCCC1 | inconclusive: 79.4 µM [inhibitor, single point] | 
On1onc2c3cc(-c4ccccc4)nc3ccc21 | inconclusive: 22.4 µM [inhibitor, full curve, poor fit] | 

SMILES | Potency | activity change, negative = inhibition
CC(C)c1ccccc1NC(=S)N1CCN(Cc2ccc3c(c2)OCO3)CC1 | inconclusive: 70.8 µM [inhibitor, single point] | 
Cc1cc(C)n(/N=C/c2ccc(C(C)C)cc2)c(=O)c1C#N |  | inactive: 5.09%
CCC(Sc1nnc(-c2ccc(OC)c(OC)c2)c(-c2ccc(OC)c(OC)c2)n1)C(=O)NC1CCCC1 (configuration not stated) | inconclusive: 100 µM [inhibitor, single point] | 
COc1ccc(/C=C2\SC(=S)N(CCC(=O)Nc3cccc(C(=O)O)c3)C2=O)cc1 | inconclusive: 79.4 µM [inhibitor, single point] | 
Cc1cccn2c(=O)cc(CSc3nnc(NC(=O)c4ccc(F)cc4)s3)nc12 |  | inactive: 6.71%
CCOC(=O)CN(C(=O)COc1nc(-c2ccccc2)cc(C)c1C#N)c1cccc(OC)c1 |  | inactive: -2.02%
Cc1ccc(NC(=O)CSc2nnc(-c3cnccn3)n2Cc2ccco2)cc1 | inconclusive: 79.4 µM [inhibitor, single point] | 
Cc1nc(NC(=O)C2CCCC2)sc1Cc1ccc2c(c1)OCO2 | active: 50.1 µM | 
Cc1cc(F)ccc1S(=O)(=O)Nc1ccccc1C(=O)Nc1ccc2[nH]c(=O)[nH]c2c1 | inconclusive: 89.1 µM [inhibitor, single point] | 
CC(NCc1ccncc1)C12CC3CC(CC(C3)C1)C2 (configuration not stated) | inconclusive: 79.4 µM [inhibitor, partial curve] | 
O=C1CC(N2CCCN(C3CC(=O)N(c4ccc(F)cc4)C3=O)CC2)C(=O)N1c1ccc(F)cc1 (configuration not stated) |  | inactive: 3.01%
Cc1ccc(O)c(NC(=S)NC(=O)c2ccccc2Cl)c1 | inconclusive: 50.1 µM [inhibitor, partial curve] | 
O=C(O)c1c2c(nc3ccc(S(=O)(=O)N4CCC(C(=O)N5CCCCC5)CC4)cc13)CCCC2 | inconclusive: 89.1 µM [inhibitor, single point] | 
CCc1ccc(OC(=O)/C=C/c2ccco2)cc1 | inconclusive: 79.4 µM [inhibitor, single point] | 
CN(C)c1c([N+](=O)[O-])cc2[nH]c(=O)[nH]c2c1[N+](=O)[O-] | inconclusive: 89.1 µM [inhibitor, single point] | 
O=C(CCN1C(=O)/C(=C/c2ccccc2)SC1=S)Nc1ccccn1 | inconclusive: 10 µM [inhibitor, partial curve] | 
O=C(c1ccc(COc2ccc(F)cc2)o1)n1cc(Br)cn1 | inconclusive: 50.1 µM [inhibitor, partial curve] | 
Cc1ccc(Cn2ccc(=O)c(OCc3c(Cl)cccc3Cl)c2C)cc1 | inconclusive: 89.1 µM [inhibitor, single point] | 
O=c1c2ccccc2[nH]c(=S)n1CCN1CCC(=C(c2ccc(F)cc2)c2ccc(F)cc2)CC1 | inconclusive: 79.4 µM [inhibitor, single point] | 
COc1cc(C2C(C(=O)C(C)(C)C)=C(O)C(=O)N2Cc2ccccc2)ccc1O (configuration not stated) | inconclusive: 89.1 µM [inhibitor, single point] | 
S=c1[nH]nc(-c2ccc3ccccc3n2)n1-c1ccc2ncccc2c1 | inconclusive: 50.1 µM [inhibitor, partial curve] | 
